Source: article PMC8986528
These are yes or no findings as the source states them, for the method shown. For part of these data: In cells and extracts the contact can be indirect. Some entries that bind do so weakly or less than the wild type. For part of these data: Where a sequence is shown, tags or fusion partners need not be part of it.

Chains of the proteins cited; added tags and fusions are not shown.
UniProt Q99496: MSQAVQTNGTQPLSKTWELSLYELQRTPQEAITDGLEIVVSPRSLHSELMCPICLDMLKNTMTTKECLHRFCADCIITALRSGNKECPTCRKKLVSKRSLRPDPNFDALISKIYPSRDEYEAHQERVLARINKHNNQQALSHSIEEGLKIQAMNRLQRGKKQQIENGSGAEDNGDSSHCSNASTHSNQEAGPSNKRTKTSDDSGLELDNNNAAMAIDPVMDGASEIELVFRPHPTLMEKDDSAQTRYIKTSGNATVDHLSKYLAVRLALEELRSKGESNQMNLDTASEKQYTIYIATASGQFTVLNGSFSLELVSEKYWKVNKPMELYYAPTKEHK
UniProt O75530: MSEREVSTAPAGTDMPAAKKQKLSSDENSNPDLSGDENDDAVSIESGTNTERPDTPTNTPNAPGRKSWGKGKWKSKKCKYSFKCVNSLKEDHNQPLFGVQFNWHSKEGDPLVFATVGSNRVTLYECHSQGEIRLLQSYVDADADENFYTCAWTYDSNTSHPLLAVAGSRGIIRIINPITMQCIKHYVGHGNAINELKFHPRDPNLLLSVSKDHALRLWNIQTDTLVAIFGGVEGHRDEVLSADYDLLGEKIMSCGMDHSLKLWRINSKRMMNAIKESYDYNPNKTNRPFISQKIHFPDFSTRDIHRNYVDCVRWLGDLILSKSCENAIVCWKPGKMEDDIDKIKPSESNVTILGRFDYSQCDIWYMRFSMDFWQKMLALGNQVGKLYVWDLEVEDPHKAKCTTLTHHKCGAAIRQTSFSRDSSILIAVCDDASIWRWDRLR
UniProt O95931: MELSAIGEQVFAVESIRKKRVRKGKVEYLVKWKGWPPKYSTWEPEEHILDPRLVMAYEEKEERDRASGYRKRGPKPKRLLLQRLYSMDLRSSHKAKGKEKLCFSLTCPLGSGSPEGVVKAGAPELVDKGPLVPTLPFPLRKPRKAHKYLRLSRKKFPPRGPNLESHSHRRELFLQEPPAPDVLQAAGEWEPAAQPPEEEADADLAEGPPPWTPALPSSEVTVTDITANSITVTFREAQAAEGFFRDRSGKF
UniProt Q9H4L4: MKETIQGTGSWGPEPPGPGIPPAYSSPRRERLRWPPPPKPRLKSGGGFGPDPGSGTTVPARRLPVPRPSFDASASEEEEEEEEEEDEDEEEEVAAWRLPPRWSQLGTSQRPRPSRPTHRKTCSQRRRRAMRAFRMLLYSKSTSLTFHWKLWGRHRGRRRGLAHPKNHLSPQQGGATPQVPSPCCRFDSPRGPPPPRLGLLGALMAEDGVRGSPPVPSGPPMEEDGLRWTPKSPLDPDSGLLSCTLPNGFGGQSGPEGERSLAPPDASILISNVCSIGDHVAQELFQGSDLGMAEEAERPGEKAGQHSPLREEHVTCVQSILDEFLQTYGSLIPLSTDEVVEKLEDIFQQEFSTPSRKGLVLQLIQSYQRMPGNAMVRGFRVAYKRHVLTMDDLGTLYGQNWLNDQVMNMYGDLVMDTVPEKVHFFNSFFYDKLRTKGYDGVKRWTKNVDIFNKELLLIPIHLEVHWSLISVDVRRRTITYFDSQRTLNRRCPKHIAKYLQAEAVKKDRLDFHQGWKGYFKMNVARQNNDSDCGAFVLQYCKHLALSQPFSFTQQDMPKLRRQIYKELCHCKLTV
UniProt Q8IZL8: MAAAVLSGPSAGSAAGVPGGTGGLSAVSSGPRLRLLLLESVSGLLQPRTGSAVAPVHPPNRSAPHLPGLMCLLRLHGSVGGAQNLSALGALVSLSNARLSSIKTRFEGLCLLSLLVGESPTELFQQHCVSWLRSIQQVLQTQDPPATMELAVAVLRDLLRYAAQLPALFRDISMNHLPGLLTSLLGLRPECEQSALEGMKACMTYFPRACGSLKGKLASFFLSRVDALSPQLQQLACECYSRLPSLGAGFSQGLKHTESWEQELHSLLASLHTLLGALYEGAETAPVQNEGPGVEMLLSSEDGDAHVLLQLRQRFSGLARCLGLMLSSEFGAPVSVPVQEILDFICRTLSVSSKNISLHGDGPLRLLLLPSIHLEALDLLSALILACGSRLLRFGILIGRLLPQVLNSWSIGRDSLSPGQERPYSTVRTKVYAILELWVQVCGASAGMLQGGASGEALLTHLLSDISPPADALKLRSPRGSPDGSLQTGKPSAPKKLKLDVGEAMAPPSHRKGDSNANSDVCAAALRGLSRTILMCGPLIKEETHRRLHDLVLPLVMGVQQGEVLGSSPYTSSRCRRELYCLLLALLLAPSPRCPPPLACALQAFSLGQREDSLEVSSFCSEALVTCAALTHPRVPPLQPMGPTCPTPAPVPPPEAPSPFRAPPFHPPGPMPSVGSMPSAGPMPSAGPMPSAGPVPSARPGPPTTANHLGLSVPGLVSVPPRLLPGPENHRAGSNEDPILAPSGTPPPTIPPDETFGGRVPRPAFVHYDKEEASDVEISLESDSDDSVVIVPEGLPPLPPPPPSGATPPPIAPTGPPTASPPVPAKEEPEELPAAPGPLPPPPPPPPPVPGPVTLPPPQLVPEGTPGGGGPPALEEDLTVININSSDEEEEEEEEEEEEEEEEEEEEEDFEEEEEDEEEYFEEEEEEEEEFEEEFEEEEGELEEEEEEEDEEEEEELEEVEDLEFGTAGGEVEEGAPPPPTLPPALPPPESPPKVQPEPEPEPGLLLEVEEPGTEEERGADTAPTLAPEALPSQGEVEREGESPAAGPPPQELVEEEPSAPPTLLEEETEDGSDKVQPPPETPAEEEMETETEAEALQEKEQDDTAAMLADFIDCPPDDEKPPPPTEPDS

Assays:
[1] = molecular target: T1, PCGF3 (yeast two-hybrid fusion) (human) (UniProt Q3KNV8); experiment: two-hybrid; yeast two-hybrid, bait pGBKT7 and prey pGADT7, growth on quadruple dropout medium (SC -Trp, -Leu, -His, -Ade), 30 °C
T1 sequence: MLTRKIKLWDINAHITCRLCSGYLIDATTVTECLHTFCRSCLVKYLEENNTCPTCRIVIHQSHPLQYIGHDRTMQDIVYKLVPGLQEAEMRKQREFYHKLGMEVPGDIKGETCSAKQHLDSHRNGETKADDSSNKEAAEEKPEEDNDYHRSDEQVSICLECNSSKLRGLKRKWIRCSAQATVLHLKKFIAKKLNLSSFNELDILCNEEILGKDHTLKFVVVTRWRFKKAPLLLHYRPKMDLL

[2] = molecular target: RING1B (human (endogenous in HEK 293FT)) (UniProt Q99496); experiment: co-sedimentation; Flag–NOL9-associated and PHC2–Flag-associated proteins purified from the soluble chromatin fraction of cells with wild-type RING1B, eluted with 3×Flag peptide, 10–30% sucrose gradient, 16 h at 4 °C, fractions immunoblotted
[3] = molecular target: RING1B (human (endogenous in HEK 293FT)) (UniProt Q99496); experiment: co-IP; immunoprecipitation from the DNase I-digested chromatin fraction of HEK 293FT cells (IP buffer 250 mM NaCl, 1% Triton X-100), Dynabeads Protein A/G, immunoblot; Fig. 1f, g with or without 500 U/ml benzonase
[4] = molecular target: T2, CBX8 (yeast two-hybrid fusion) (human) (UniProt Q9HC52); experiment: two-hybrid; yeast two-hybrid, bait pGBKT7 and prey pGADT7, growth on quadruple dropout medium (SC -Trp, -Leu, -His, -Ade), 30 °C
T2 sequence: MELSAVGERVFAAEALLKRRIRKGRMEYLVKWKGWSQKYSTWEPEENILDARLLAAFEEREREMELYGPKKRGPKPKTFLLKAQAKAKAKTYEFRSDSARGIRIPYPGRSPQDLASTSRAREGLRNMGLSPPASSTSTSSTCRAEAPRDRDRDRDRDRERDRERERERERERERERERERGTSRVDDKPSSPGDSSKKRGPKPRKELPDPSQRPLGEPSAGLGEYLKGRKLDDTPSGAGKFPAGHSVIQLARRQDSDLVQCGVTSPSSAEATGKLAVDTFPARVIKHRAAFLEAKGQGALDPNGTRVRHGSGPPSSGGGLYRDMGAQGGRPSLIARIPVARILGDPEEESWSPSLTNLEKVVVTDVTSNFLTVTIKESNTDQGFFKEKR

[5] = molecular target: EED (yeast two-hybrid fusion) (human) (UniProt O75530); experiment: as above
[6] = molecular target: RING1B (yeast two-hybrid fusion) (human) (UniProt Q99496); experiment: as above
[7] = molecular target: CBX7 (yeast two-hybrid fusion) (human) (UniProt O95931); experiment: as above
[8] = molecular target: full-length GST–RING1B (human) (UniProt Q99496); experiment: pull-down; GST or GST-tagged RING1B proteins (0.1 μM) on Glutathione Sepharose 4B with untagged TEX10 (0.1 μM) in PBS pH 7.4 with 0.5% Triton 100, overnight at 4 °C; TEX10 detected by immunoblot; both purified
[9] = molecular target: SENP3 (human (endogenous in HEK 293FT)) (UniProt Q9H4L4); experiment: co-IP; immunoprecipitation from the DNase I-digested chromatin fraction of HEK 293FT cells (IP buffer 250 mM NaCl, 1% Triton X-100), Dynabeads Protein A/G, immunoblot; Fig. 1f, g with or without 500 U/ml benzonase
[10] = molecular target: PELP1 (human (endogenous in HEK 293FT)) (UniProt Q8IZL8); experiment: as above
[11] = molecular target: T3, 3×Flag–WDR18 (human (endogenous in HEK 293FT)) (UniProt Q9BV38); experiment: as above
T3 sequence: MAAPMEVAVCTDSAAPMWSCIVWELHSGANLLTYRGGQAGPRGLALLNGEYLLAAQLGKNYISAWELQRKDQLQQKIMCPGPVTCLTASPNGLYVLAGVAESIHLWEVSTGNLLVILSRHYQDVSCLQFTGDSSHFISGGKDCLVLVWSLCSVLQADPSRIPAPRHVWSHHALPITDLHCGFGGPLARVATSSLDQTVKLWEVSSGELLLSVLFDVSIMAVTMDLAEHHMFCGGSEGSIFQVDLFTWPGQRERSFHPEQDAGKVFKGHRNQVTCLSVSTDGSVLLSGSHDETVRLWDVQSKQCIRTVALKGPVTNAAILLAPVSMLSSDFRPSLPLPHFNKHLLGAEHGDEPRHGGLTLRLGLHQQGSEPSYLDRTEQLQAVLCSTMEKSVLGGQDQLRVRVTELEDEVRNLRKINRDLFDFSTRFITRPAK

[12] = molecular target: T4, TEX10 (human (endogenous in HEK 293FT)) (UniProt Q9NXF1); experiment: as above
T4 sequence: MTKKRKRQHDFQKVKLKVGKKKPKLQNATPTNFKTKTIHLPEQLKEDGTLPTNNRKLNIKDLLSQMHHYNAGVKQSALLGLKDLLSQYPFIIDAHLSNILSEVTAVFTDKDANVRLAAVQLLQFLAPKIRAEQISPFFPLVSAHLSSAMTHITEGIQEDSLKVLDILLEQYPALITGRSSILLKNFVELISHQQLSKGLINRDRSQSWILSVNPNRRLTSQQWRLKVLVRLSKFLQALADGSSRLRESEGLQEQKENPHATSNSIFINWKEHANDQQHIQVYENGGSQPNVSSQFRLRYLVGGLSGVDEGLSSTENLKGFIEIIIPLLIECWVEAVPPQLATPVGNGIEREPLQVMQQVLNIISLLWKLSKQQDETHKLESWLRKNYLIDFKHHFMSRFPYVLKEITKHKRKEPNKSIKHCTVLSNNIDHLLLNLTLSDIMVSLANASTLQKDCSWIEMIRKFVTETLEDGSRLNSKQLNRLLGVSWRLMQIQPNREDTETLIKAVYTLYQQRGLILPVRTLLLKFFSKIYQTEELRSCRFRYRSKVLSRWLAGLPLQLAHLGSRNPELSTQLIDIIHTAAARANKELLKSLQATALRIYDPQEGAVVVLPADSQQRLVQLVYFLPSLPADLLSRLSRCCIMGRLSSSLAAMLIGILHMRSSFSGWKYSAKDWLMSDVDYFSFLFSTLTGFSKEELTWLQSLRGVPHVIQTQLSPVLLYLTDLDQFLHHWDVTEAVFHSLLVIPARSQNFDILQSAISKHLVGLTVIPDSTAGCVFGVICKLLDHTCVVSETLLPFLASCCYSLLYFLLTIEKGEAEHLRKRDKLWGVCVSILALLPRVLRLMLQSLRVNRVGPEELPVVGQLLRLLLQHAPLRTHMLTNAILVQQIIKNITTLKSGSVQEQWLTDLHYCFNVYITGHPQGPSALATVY

For “PELP1 (yeast two-hybrid fusion) (from UniProt Q8IZL8 1-1130)”, the binding [1] was “binds”.

B1: TEX10 (protein, UniProt Q9NXF1 1-929)
chain: T4 sequence
For B1, the binding [2] was “binds” and the binding [3] was “binds”.

B2: TEX10 (yeast two-hybrid fusion) (protein, UniProt Q9NXF1 1-929)
chain: T4 sequence
With B2 the binding [4] was “binds”, the binding [5] was “binds” and the binding [6] was “binds”. The binding [7] was “binds”.

B3: TEX10 (bacterially expressed and purified) (protein, UniProt Q9NXF1 1-929)
chain: T4 sequence
For B3, the binding [8] was “binds”.

B4: SUV39H1 (protein, UniProt O43463 1-412)
chain: MAENLKGCSVCCKSSWNQLQDLCRLAKLSCPALGISKRNLYDFEVEYLCDYKKIREQEYYLVKWRGYPDSESTWEPRQNLKCVRILKQFHKDLERELLRRHHRSKTPRHLDPSLANYLVQKAKQRRALRRWEQELNAKRSHLGRITVENEVDLDGPPRAFVYINEYRVGEGITLNQVAVGCECQDCLWAPTGGCCPGASLHKFAYNDQGQVRLRAGLPIYECNSRCRCGYDCPNRVVQKGIRYDLCIFRTDDGRGWGVRTLEKIRKNSFVMEYVGEIITSEEAERRGQIYDRQGATYLFDLDYVEDVYTVDAAYYGNISHFVNHSCDPNLQVYNVFIDNLDERLPRIAFFATRTIRAGEELTFDYNMQVDPVDMESTRMDSNFGLAGLPGSPKKRVRIECKCGTESCRKYLF
With B4 the binding [9] was “no binding”, the binding [10] was “no binding” and the binding [11] was “no binding”. For the same molecule, the binding [12] was “no binding”.
